PMC5892938
The list shows a part of the results. At the low end of the ranking, values are background and their order means little.

These sequences were tested against GST-SBP-SLBP (stem-loop binding protein) (UniProt Q14493) (assay: targeted RNA Bind-n-Seq). Conditions: RBNS binding buffer: 25 mM Tris pH 7.5, 150 mM KCl, 3 mM MgCl2, 0.1% Tween, 0.5 mg/mL BSA, 1 mM DTT; 27 nM protein, 750 pM RNA pool; temperature not stated; high values mean tight binding.
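Further: DESeq read counts versus GST-SBP nonspecific binding control pulldown.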

Row | Sequence | binding signal (log2 fold change)
1 | GGUCACGUCUCAAUCAACUCAUCUUCCAGGGAAAUCCCUGGCAAAUUCAACAGCUCGCAGUCAAG | 0.00867
2 | GGUCACGUCUCAAUCAACUCUUUCUCAGGAGUUUUCUCCUGCUAUGUCAACAGCUCGCAGUCAAG | 0.213
3 | GGUCACGUCUCAAUCAACUCAUUCGAGGGGGGGAAAACCCCUUUACCCUCAAUCUCAACAGCUCGCAGUCAAG | 0.0563
4 | GGUCACGUCUCAAUCAACUCACAAGAGGGGGGGAAAACCCCUUUACCCUCCGCAUCAACAGCUCGCAGUCAAG | -0.00381
5 | GGUCACGUCUCAAUCAACUCUUUCGAGGGGGGGAAAACCCCUUUACCCUCACUAUCAACAGCUCGCAGUCAAG | 0.237
6 | GGUCACGUCUCAAUCAACUCUUUCCCCAGGGAAAACCCUGGCUUAUUCAACAGCUCGCAGUCAAG | 0.0792
7 | GGUCACGUCUCAAUCAACUCAUUCUCAGGAGUUUCCUCCUGUAUUUUCAACAGCUCGCAGUCAAG | 0.158
8 | GGUCACGUCUCAAUCAACUCUAUUCCAGGAGUUUCCUCCUGCUUUCUCAACAGCUCGCAGUCAAG | 0.0872
9 | GGUCACGUCUCAAUCAACUCUUUUUCCAGGGAAAGCCCUGGUUAAUUCAACAGCUCGCAGUCAAG | 0.0655
10 | GGUCACGUCUCAAUCAACUCUAUUUCCAGGGAAAACCCUGGCAUGUUCAACAGCUCGCAGUCAAG | 0.0671
11 | GGUCACGUCUCAAUCAACUCAACUCCCAGGGAAAUCCCUGGUAUACUCAACAGCUCGCAGUCAAG | -0.129
12 | GGUCACGUCUCAAUCAACUCAUUUUCCAGGGAAAUCCCUGGCAAUCUCAACAGCUCGCAGUCAAG | 0.0561
13 | GGUCACGUCUCAAUCAACUCAUCAGAGGGGGGGAAAACCCCUUUGCCCUCAUAUUCAACAGCUCGCAGUCAAG | -0.364
14 | GGUCACGUCUCAAUCAACUCAUUCCCCAGGGAAAGCCCUGGCAAACUCAACAGCUCGCAGUCAAG | -0.218
15 | GGUCACGUCUCAAUCAACUCUUUUCCAGGAGUUUACUCCUGUUUUCUCAACAGCUCGCAGUCAAG | -0.213
16 | GGUCACGUCUCAAUCAACUCUACUUCAGGAGUUUUCUCCUGUAUAUUCAACAGCUCGCAGUCAAG | 0.0917
17 | GGUCACGUCUCAAUCAACUCAUUCCCAGGAGUUUGCUCCUGUAUUUUCAACAGCUCGCAGUCAAG | 0.0892
18 | GGUCACGUCUCAAUCAACUCUAUUCCCAGGGAAAACCCUGGCUUAUUCAACAGCUCGCAGUCAAG | 0.0509
19 | GGUCACGUCUCAAUCAACUCAUCGCCAGGAGUUUUCUCCUGCAAUUUCAACAGCUCGCAGUCAAG | -0.0266
20 | GGUCACGUCUCAAUCAACUCUAUUUCCAGGGAAAGCCCUGGCUAUUUCAACAGCUCGCAGUCAAG | 0.201
21 | GGUCACGUCUCAAUCAACUCAUCUUCCAGGGAAACCCCUGGUAUUCUCAACAGCUCGCAGUCAAG | 0.243
22 | GGUCACGUCUCAAUCAACUCACUAGAGGGGGGGAAAACCCCUUUACCCUCGAAUUCAACAGCUCGCAGUCAAG | -0.11
23 | GGUCACGUCUCAAUCAACUCUCAAGAGGGGGGGAAAACCCCUUUACCCUCGAUAUCAACAGCUCGCAGUCAAG | 0.131
24 | GGUCACGUCUCAAUCAACUCUUUCUCAGGAGUUUUCUCCUGCUUUCUCAACAGCUCGCAGUCAAG | 0.0772
25 | GGUCACGUCUCAAUCAACUCAUUCCCAGGAGUUUUCUCCUGUAAACUCAACAGCUCGCAGUCAAG | 0.0883

Row | Sequence | binding signal (log2 fold change)
26 | GGUCACGUCUCAAUCAACUCAUCGUCAGGAGUUUUCUCCUGUAUUCUCAACAGCUCGCAGUCAAG | -0.158
27 | GGUCACGUCUCAAUCAACUCAAUUCCAGGAGUUUUCUCCUGCUAAUUCAACAGCUCGCAGUCAAG | 0.0652
28 | GGUCACGUCUCAAUCAACUCAUUUCCCAGGGAAACCCCUGGUAAUCUCAACAGCUCGCAGUCAAG | -0.0568
29 | GGUCACGUCUCAAUCAACUCAUUUUCAGGAGUUUUCUCCUGCUAACUCAACAGCUCGCAGUCAAG | 0.0378
30 | GGUCACGUCUCAAUCAACUCUUUCUCCAGGGAAAUCCCUGGCUAUCUCAACAGCUCGCAGUCAAG | 0.375
31 | GGUCACGUCUCAAUCAACUCAUCCCCCAGGGAAAGCCCUGGUAUAUUCAACAGCUCGCAGUCAAG | 0.227
32 | GGUCACGUCUCAAUCAACUCCACGGAGGGGGGGAAAACCCCUUUACCCUCAUUCUCAACAGCUCGCAGUCAAG | -0.463
33 | GGUCACGUCUCAAUCAACUCAUUCCCAGGAGUUUGCUCCUGCUUACUCAACAGCUCGCAGUCAAG | 0.113
34 | GGUCACGUCUCAAUCAACUCUAUCCCAGGAGUUUUCUCCUGUAAAUUCAACAGCUCGCAGUCAAG | 0.107
35 | GGUCACGUCUCAAUCAACUCAUCUUCAGGAGUUUUCUCCUGUAAAUUCAACAGCUCGCAGUCAAG | 0.107
36 | GGUCACGUCUCAAUCAACUCAGUCUCAGGAGUUUGCUCCUGCUAAUUCAACAGCUCGCAGUCAAG | -0.248
37 | GGUCACGUCUCAAUCAACUCAAUAGAGGGGGGGAAAACCCCUUUACCCUCCAUAUCAACAGCUCGCAGUCAAG | 0.379
38 | GGUCACGUCUCAAUCAACUCUACUCCCAGGGAAAGCCCUGGCUUACUCAACAGCUCGCAGUCAAG | 0.0492
39 | GGUCACGUCUCAAUCAACUCUUCCUCCAGGGAAACCCCUGGUUUUUUCAACAGCUCGCAGUCAAG | -0.214
40 | GGUCACGUCUCAAUCAACUCAUCGGAGGGGGGGAAAACCCCUUUACCCUCAUAUUCAACAGCUCGCAGUCAAG | -0.28
41 | GGUCACGUCUCAAUCAACUCUUCCCCAGGAGUUUUCUCCUGUAUUUUCAACAGCUCGCAGUCAAG | 0.0371
42 | GGUCACGUCUCAAUCAACUCUUUUUCCAGGGAAAUCCCUGGCUUUCUCAACAGCUCGCAGUCAAG | -0.122
43 | GGUCACGUCUCAAUCAACUCCUUAGAGGGGGGGAAAACCCCUUUACCCUCACACUCAACAGCUCGCAGUCAAG | 0.0368
44 | GGUCACGUCUCAAUCAACUCUUCCUCCAGGGAAAUCCCUGGUUUUCUCAACAGCUCGCAGUCAAG | -0.205
45 | GGUCACGUCUCAAUCAACUCUAUGGCCAGGGAAAUCCCUGGGAAAUUCAACAGCUCGCAGUCAAG | -0.219
46 | GGUCACGUCUCAAUCAACUCCUUCGAGGGGGGGAAAACCCCUUUACCCUCUACUUCAACAGCUCGCAGUCAAG | -0.0914
47 | GGUCACGUCUCAAUCAACUCUUACGAGGGGGGGAAAACCCCUUUACCCUCUAUAUCAACAGCUCGCAGUCAAG | -0.134
48 | GGUCACGUCUCAAUCAACUCUACUUCAGGAGUUUUCUCCUGCAAACUCAACAGCUCGCAGUCAAG | -0.0143
49 | GGUCACGUCUCAAUCAACUCUUUCUCAGGAGUUUCCUCCUGUAUAUUCAACAGCUCGCAGUCAAG | 0.148
50 | GGUCACGUCUCAAUCAACUCUUUCUCAGGAGUUUUCUCCUGCAUUCUCAACAGCUCGCAGUCAAG | 0.0931

Row | Sequence | binding signal (log2 fold change)
51 | GGUCACGUCUCAAUCAACUCAAUCCCAGGAGUUUUCUCCUGUUUUUUCAACAGCUCGCAGUCAAG | -0.3
52 | GGUCACGUCUCAAUCAACUCUAUAGAGGGGGGGAAAACCCCUUUACCCUCCACGUCAACAGCUCGCAGUCAAG | 0.00714
53 | GGUCACGUCUCAAUCAACUCAUUUCCAGGAGUUUACUCCUGUAUUCUCAACAGCUCGCAGUCAAG | -0.0595
54 | GGUCACGUCUCAAUCAACUCUACUUCCAGGGAAAACCCUGGUAAAUUCAACAGCUCGCAGUCAAG | -0.174
55 | GGUCACGUCUCAAUCAACUCAACGCCAGGAGUUUUCUCCUGUUAUCUCAACAGCUCGCAGUCAAG | 0.014
56 | GGUCACGUCUCAAUCAACUCUCACGAGGGGGGGAAAACCCCUUUGCCCUCAUUCUCAACAGCUCGCAGUCAAG | -0.419
57 | GGUCACGUCUCAAUCAACUCAUCCUCAGGAGUUUUCUCCUGCAAUCUCAACAGCUCGCAGUCAAG | -0.0897
58 | GGUCACGUCUCAAUCAACUCUAAGGAGGGGGGGAAAACCCCUUUACCCUCAAUAUCAACAGCUCGCAGUCAAG | 0.0577
59 | GGUCACGUCUCAAUCAACUCUUCCCCAGGAGUUUUCUCCUGCUUUUUCAACAGCUCGCAGUCAAG | 0.0526
60 | GGUCACGUCUCAAUCAACUCAUCGCCAGGAGUUUACUCCUGCUUUCUCAACAGCUCGCAGUCAAG | 0.0446
61 | GGUCACGUCUCAAUCAACUCUUUUUCAGGAGUUUCCUCCUGUAUACUCAACAGCUCGCAGUCAAG | 0.118
62 | GGUCACGUCUCAAUCAACUCUUCGCCCAGGGAAAACCCUGGUUAAUUCAACAGCUCGCAGUCAAG | 0.0886
63 | GGUCACGUCUCAAUCAACUCACACGAGGGGGGGAAAACCCCUUUACCCUCAAUAUCAACAGCUCGCAGUCAAG | 0.197
64 | GGUCACGUCUCAAUCAACUCAUUUCCCAGGGAAAACCCUGGCUAACUCAACAGCUCGCAGUCAAG | -0.0182
65 | GGUCACGUCUCAAUCAACUCCUCAGAGGGGGGGAAAACCCCUUUACCCUCCACAUCAACAGCUCGCAGUCAAG | -0.302
66 | GGUCACGUCUCAAUCAACUCCAUCGAGGGGGGGAAAACCCCUUUACCCUCAACAUCAACAGCUCGCAGUCAAG | -0.372
67 | GGUCACGUCUCAAUCAACUCUCACGAGGGGGGGAAAACCCCUUUACCCUCUCCAUCAACAGCUCGCAGUCAAG | -0.328
68 | GGUCACGUCUCAAUCAACUCAACGGAGGGGGGGAAAACCCCUUUACCCUCACUAUCAACAGCUCGCAGUCAAG | 0.0868
69 | GGUCACGUCUCAAUCAACUCAUCGCCAGGAGUUUCCUCCUGUUUAUUCAACAGCUCGCAGUCAAG | -0.344
70 | GGUCACGUCUCAAUCAACUCAUCUUCAGGAGUUUUCUCCUGUAUUCUCAACAGCUCGCAGUCAAG | 0.115
71 | GGUCACGUCUCAAUCAACUCUUCGUCCAGGGAAAACCCUGGUAAUUUCAACAGCUCGCAGUCAAG | -0.0606
72 | GGUCACGUCUCAAUCAACUCACUAGAGGGGGGGAAAACCCCUUUACCCUCCUAUUCAACAGCUCGCAGUCAAG | -0.0678
73 | GGUCACGUCUCAAUCAACUCUAUUUCCAGGGAAAUCCCUGGUAUACUCAACAGCUCGCAGUCAAG | -0.0561
74 | GGUCACGUCUCAAUCAACUCUAUCUCCAGGGAAACCCCUGGCAAAUUCAACAGCUCGCAGUCAAG | -0.136
